Laboratory results reported in publication PMC9895059.
No constants are given. Whether binding was seen depends on the method and setting. In cells and extracts the contact can be indirect. Some binding calls cover weakened binding; strength is not graded here.

Protein sequences, listed by entry. Tags and fused reporters are not part of them.
UniProt P35367: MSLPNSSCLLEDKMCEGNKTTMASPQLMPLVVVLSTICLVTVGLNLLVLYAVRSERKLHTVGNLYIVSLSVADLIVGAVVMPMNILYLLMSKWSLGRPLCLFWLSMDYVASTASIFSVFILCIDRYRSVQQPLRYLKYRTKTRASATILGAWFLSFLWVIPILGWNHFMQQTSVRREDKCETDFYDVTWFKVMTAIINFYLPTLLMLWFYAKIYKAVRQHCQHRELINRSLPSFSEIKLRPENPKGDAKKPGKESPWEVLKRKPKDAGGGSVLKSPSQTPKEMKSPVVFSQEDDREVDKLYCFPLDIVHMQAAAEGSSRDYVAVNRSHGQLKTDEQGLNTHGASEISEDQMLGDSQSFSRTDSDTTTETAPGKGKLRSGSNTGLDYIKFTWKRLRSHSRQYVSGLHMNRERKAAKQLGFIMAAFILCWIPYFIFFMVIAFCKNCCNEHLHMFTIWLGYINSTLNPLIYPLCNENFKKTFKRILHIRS
UniProt P61073: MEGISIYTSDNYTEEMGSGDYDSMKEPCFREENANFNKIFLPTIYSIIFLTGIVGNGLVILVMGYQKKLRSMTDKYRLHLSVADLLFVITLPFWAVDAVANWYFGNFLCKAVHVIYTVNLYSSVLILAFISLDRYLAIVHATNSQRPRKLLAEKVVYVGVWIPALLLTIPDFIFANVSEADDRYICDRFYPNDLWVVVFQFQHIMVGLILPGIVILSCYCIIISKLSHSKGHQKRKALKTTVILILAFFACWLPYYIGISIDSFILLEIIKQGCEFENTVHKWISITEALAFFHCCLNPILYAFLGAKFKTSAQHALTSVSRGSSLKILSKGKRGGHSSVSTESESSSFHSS
UniProt P35372: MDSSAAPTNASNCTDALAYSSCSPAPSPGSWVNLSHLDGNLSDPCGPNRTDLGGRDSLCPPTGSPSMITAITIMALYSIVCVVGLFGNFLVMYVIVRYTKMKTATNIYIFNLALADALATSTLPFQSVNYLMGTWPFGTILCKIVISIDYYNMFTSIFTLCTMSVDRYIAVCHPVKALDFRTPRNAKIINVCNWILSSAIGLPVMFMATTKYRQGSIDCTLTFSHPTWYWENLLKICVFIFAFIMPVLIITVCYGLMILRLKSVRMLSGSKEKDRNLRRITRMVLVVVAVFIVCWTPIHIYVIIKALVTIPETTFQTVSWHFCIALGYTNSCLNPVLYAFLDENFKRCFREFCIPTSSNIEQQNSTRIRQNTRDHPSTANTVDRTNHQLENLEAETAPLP

How the values were obtained:
[1] = target: histamine receptor H1 (HRH1) fused to a Venus BiFC fragment (UniProt P35367); assay: split reporter; BiFC with Venus fragments VNm10 and VC155 at the C-termini of the receptors; HEK293A cells cotransfected, fixed with 2% formaldehyde 48 h after transfection, confocal microscopy
[2] = target: HRH1 fused to mCitrine (BRET acceptor) or Rluc8 (BRET donor) (UniProt P35367); assay: FRET or BRET; BRET donor saturation assay in HEK293A cells: fixed amount of donor (GPCR-Rluc8), increasing amounts of acceptor (GPCR-mCitrine); coelenterazine h 5 μM; BRET plotted against mCitrine/Rluc8
[3] = target: CXCR4 fused to Rluc8 (BRET donor) or mCitrine (BRET acceptor) (UniProt P61073); assay: as above
[4] = target: C-X-C chemokine receptor 4 (CXCR4) fused to a Venus BiFC fragment (UniProt P61073); assay: split reporter; BiFC with Venus fragments VNm10 and VC155 at the C-termini of the receptors; HEK293A cells cotransfected, fixed with 2% formaldehyde 48 h after transfection, confocal microscopy

For “C-X-C chemokine receptor 4 (CXCR4) fused to a Venus BiFC fragment (from UniProt P61073 1-352)”, the binding [1] was “binds”.

In the case of “CXCR4 fused to Rluc8 (BRET donor) or mCitrine (BRET acceptor) (from UniProt P61073 1-352) (receptor)”, the binding [2] is reported as “binds”.

In the case of “HRH1 fused to mCitrine (BRET acceptor) or Rluc8 (BRET donor) (from UniProt P35367 1-487) (receptor)”, the binding [3] is reported as “binds”.

For “histamine receptor H1 (HRH1) fused to a Venus BiFC fragment (from UniProt P35367 1-487)”, the binding [4] was “binds”.

“opioid receptor μ type 1 (OPRM1), N-terminal HA tag, fused to a Venus BiFC fragment (from UniProt P35372 1-400)” was tested, and the binding [4] was “no binding”.
